Measurements as given in PubChem BioAssay AID1468 (National Center for Advancing Translational Sciences (NCATS), 2008).
“And” between values parts separate entries of the source, which are not always exact repeats. Identical values can stand only once. The campaign covered roughly 280,000 compounds. About 1,100 (0.39%) were called active. This list was built around the results that the source calls inconclusive (neither active nor inactive); the mix of calls is not that of the screen. Calls come from the whole dose curve; as a rule, active = well fitted inhibition curve with a large enough effect; inconclusive = small, poorly fitted or top-dose-only effect, or effect the other way; inactive = flat fitted curve, though single readings scatter. No potency is given beside an inconclusive call; the fits are too rough.

Molecular target: Microtubule-associated protein tau (Homo sapiens) (UniProt P10636)
Experiment: qHTS for Inhibitors of Tau Fibril Formation, Fluorescence Polarization; note: nearly all actives have a fitted effect of over 55% in size
Details: K18 P301L tau heparin fibrillization, Alexa594 FP, 6 h; series mostly up to 57.7 µM; activity, negative = inhibition: at the top concentration
Summary of the method: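 Quantitative HTS format: compounds meet 15 uM recombinant K18 P301L tau and Alexa 594-tau tracer in 100 mM sodium acetate pH 7; 20 uM heparin triggers fibrillization at 37 C over 6 hr; FP gives the signal.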
% is set by controls: 0 for no effect and ±100 for the full control effect; potency is the fitted concentration of half-maximal effect; tags give direction and shape of the fitted curve.

Sequence of UniProt P10636 (P10636 whole entry, looked up): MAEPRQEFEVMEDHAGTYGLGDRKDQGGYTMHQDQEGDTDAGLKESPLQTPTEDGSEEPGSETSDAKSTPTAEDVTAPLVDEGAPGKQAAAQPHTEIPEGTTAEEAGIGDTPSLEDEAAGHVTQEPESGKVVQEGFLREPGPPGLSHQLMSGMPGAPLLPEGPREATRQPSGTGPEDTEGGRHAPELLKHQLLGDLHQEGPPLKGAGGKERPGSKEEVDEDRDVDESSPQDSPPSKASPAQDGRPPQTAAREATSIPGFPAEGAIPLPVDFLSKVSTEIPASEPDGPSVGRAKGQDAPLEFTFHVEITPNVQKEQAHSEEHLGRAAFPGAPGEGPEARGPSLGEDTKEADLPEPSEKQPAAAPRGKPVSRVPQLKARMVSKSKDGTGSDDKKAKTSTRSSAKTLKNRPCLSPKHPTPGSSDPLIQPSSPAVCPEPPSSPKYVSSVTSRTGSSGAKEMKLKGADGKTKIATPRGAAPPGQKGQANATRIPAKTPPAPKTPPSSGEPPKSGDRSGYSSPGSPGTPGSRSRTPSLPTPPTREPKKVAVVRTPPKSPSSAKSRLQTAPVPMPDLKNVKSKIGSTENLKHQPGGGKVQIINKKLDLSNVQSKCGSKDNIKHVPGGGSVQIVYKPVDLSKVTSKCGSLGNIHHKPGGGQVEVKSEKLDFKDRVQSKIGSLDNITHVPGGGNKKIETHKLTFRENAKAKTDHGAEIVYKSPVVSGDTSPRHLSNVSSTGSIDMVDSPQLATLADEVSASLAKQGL

SMILES | Potency | activity, negative = inhibition
Cc1ccccc1Cn1c2ccccc2c2cnn(CC(=O)NC(C)CCc3ccccc3)c(=O)c21 (stereo not drawn) | inconclusive [inhibitor, single point] | –
CCOC(=O)N1CCN(c2ccc(C(=O)c3ccccc3)cc2F)CC1 | – | inactive: 0.11%
CCc1ccc(OCC(=O)NC(NC(=S)Nc2ccccc2)C(Cl)(Cl)Cl)cc1 (stereo not drawn) | inconclusive [inhibitor, single point] | –
Cc1c(Cl)cccc1NC(=O)CC1Sc2ccccc2NC1=O (stereo not drawn) | inconclusive [inhibitor, single point] | –
COC(=O)c1ccc(NC(=O)CN(CCc2ccccc2)S(=O)(=O)c2ccc(OC)cc2)cc1 | inconclusive [inhibitor, full curve] | –
Cc1cccnc1NC(=S)NC(=O)/C=C/c1ccco1 | inconclusive [inhibitor, single point] | –
CC1(C)CC(=O)c2sc(NC(=O)c3ccccc3)nc2C1 | – | inactive: 2.28%
Cc1ccc(CNC(=O)CC(C)CC2=NS(=O)(=O)c3ccccc3N2)cc1 (stereo not drawn) | inconclusive [inhibitor, single point] | –
Nc1ccc2c3c(cccc13)C(=O)N(c1ccccc1)C2=O | inconclusive [inhibitor, single point] | –
Cc1ccc(Nc2ncc(C(=O)N3CCN(c4ccc(F)cc4)CC3)c3ccccc23)cc1Cl | – | inactive: -12.4%
Cc1ccc(NC(=O)C2CCCN2S(=O)(=O)c2cccc3nsnc23)c(C)c1 (stereo not drawn) | – | inactive: -1.02%
Cc1ccc(S(=O)(=O)c2nc(Nc3ccccc3)sc2Cl)cc1 | inconclusive [inhibitor, partial curve] | –
Cc1cc(=O)n2[nH]c(-c3ccsc3-n3c(C)ccc3C)cc2n1 | inconclusive [inhibitor, single point] | –
CCS(=O)(=O)c1ccc(O)c(Nc2cc(C)nc(SC)n2)c1 | – | inactive: 10.4%
CCCCCCCCCCCC(=O)c1c(O)cccc1O | inconclusive [inhibitor, single point] | –
CC(C)c1cnc2c(c1SCC(=O)Nc1ccc(OC(F)(F)F)cc1)c(=O)n(C)c(=O)n2C | inconclusive [inhibitor, partial curve] | –
CC1CCN(S(=O)(=O)c2nnc(NC(=O)c3ccc(C(C)C)cc3)s2)CC1 | inconclusive [inhibitor, partial curve] | –
CCN(CC)S(=O)(=O)c1ccc2c(c1)nc(CCC(=O)O)n2CC | – | inactive: -0.223%
O=c1c2cc(N3CCOCC3)ccc2[nH]c(=S)n1CCCN1CCCCC1 | – | inactive: -0.729%
CCOC(=O)C1(Cc2cccc(F)c2)CCN(CC(O)CO)CC1 (stereo not drawn) | – | inactive: 1.64%
O=C(O)c1cccc(-n2cnnn2)c1 | – | inactive: -1.73%
Cc1ccc(CNC(=O)CCN2C(=O)COc3ccc(C)cc32)cc1 | – | inactive: 0.597%
Cc1ccc(-c2nc(Nc3ccc(N4CCOCC4)cc3)c3ccccc3n2)cc1 | inconclusive [activator, single point] | –

SMILES | Potency | activity, negative = inhibition
CC(C)NC(=O)c1ccc(-n2c(-c3ccccc3)cc3c2CCCC3)cc1 | inconclusive [inhibitor, partial curve, poor fit] | –
CCc1ccc2[nH]c(O)c(N=Nc3nc(-c4ccccc4)cs3)c2c1 | – | inactive: 9.9%
CC(=O)Oc1ccc(-c2ccc(C(=O)Nc3cccc(S(=O)(=O)N4CCOCC4)c3)cc2)cc1 | inconclusive [inhibitor, single point] | –
CCOC(=O)c1ccc(CN(Cc2ccc(Cl)cc2Cl)S(=O)(=O)c2ccc(F)c(C)c2)cc1 | – | inactive: -0.331%
O=C1C(NS(=O)(=O)c2cccs2)=C(N2CCN(c3cccc(Cl)c3)CC2)C(=O)c2ccccc21 | inconclusive [inhibitor, partial curve] | –
CCc1ccc2nc(N(Cc3cccnc3)C(C)=O)sc2c1 | – | inactive: -0.333%
O=C(CC(NC(=O)c1ccccc1)c1ccccc1)Nc1ccc(F)c(F)c1 (stereo not drawn) | inconclusive [inhibitor, single point] | –
CC1CC(C)(C)NC(=S)N1CCC(=O)NCCc1ccc(Cl)cc1 (stereo not drawn) | – | inactive: -7.27%
CCOC(=O)N/N=C1/C[C@@H](O)[C@@H](O)[C@@H]2[C@@H]3C(=O)N(CC)C(=O)[C@H]3CC[C@H]12 | inconclusive [inhibitor, full curve, poor fit] | –
COc1ccc(OC)c2sc(N3CCN(C(=O)c4ccc5c(c4)CCCC5)CC3)nc12 | – | inactive: -4.42%
Nc1ncnc2oc(-c3ccco3)c(-c3ccco3)c12 | inconclusive [inhibitor, partial curve] | –
O=c1c2cn[nH]c2[nH]c(=S)n1-c1ccccc1 | inconclusive [inhibitor, single point] | –
Cc1[nH]c2ccccc2c1C(=O)COC(=O)c1c(-c2c(F)cccc2Cl)noc1C | active: 14.1 µM | –
O=C(Nc1ccc2oc(-c3cccnc3)nc2c1)c1ccc(-c2ccccc2OC(F)(F)F)o1 | inconclusive [inhibitor, partial curve] | –
COc1ccc(C(=O)c2sc(Nc3ccccc3)c(C(=O)Nc3ccc(OC)c(OC)c3)c2N)cc1 | inconclusive [inhibitor, single point] | –
COC(=O)C1=C(N)Oc2cc(C)n(CCc3ccccc3)c(=O)c2C1c1cccnc1 (stereo not drawn) | inconclusive [inhibitor, full curve, poor fit] | –
Cc1cccc(-c2nc3scc(CCNS(=O)(=O)c4ccc(Oc5ccccc5)cc4)n3n2)c1 | inconclusive [inhibitor, partial curve] | –
O=C(Nc1cccc(Cl)c1)c1ccc(F)c(S(=O)(=O)NCc2ccc3c(c2)OCO3)c1 | inconclusive [inhibitor, partial curve] | –
O=C(NCCc1cccs1)c1ccc(Cl)cc1 | – | inactive: 4.02%
CC(C)N1C(=O)/C(=C\c2nc3ccccc3c(=O)n2-c2ccccc2)c2ccccc21 | – | inactive: -2.88%
Cc1ccc(N2CCN(S(=O)(=O)c3cc(C(=O)Nc4cc(Cl)cc(Cl)c4)ccc3F)CC2C)cc1 (stereo not drawn) | inconclusive [inhibitor, partial curve] | –
CCn1c(CC(=O)Nc2cccc(OC)c2)nnc1SCC(=O)Nc1nccs1 | – | inactive: -0.644%
COc1ccc(-c2csc(N(CCc3ccc(OC)c(OC)c3)C(=O)COc3ccccc3)n2)cc1 | inconclusive [inhibitor, partial curve] | –

SMILES | Potency | activity, negative = inhibition
O=C(N/N=C/C(Cl)=C/c1ccc([N+](=O)[O-])cc1)C(=O)Nc1ccc(C(=O)O)cc1 | – | inactive: -0.168%
S=C(Nc1ccccc1)Nc1ccc(OCc2ccc(Cl)cc2Cl)cc1 | – | inactive: -1.29%
O=C(c1cc([N+](=O)[O-])ccc1Cl)N1CCN(c2ccc([N+](=O)[O-])cc2)CC1 | – | inactive: 8.67%
COc1ccc(NC(=O)Cn2c(=O)n(Cc3nc(-c4ccccc4)no3)c(=O)c3cc4c(cc32)OCO4)c(OC)c1 | inconclusive [inhibitor, single point] | –
COc1ccc(Cc2n[nH]c(=S)n(N)c2=O)cc1 | – | inactive: 6.9%
O=C(Nc1ccc2oc(-c3cccnc3)nc2c1)c1ccc(Br)cc1 | inconclusive [inhibitor, single point] | –
CCC(C)NS(=O)(=O)c1ccc(S(=O)(=O)N2CC=C(c3ccc(F)cc3)CC2)cc1 (stereo not drawn) | inconclusive [inhibitor, single point] | –
CCOC(=O)CSc1nnc(NCC(=O)OC(C)C)c(=O)[nH]1 | inconclusive [inhibitor, single point] | –
NC(=O)COc1ncn(-c2ccccc2)n1 | inconclusive [inhibitor, single point] | –
CC(=O)Nc1ccc(S(=O)(=O)NC2=C(N3CCN(c4ccc(F)cc4)CC3)C(=O)c3ccccc3C2=O)cc1 | inconclusive [inhibitor, single point] | –
CCOC(=O)C1=C(C)NC(C)=C(C(=O)OCC)C1 | inactive | –
O=S(=O)(c1ccc2nc(Nc3ccc(Br)cc3F)ccc2c1)N1CCCC1 | inconclusive [inhibitor, full curve, poor fit] | –
Cc1ccc(S(=O)(=O)N(C)c2ccc(OCC(=O)Nc3nc4ccccc4s3)cc2)cc1 | inconclusive [inhibitor, partial curve, poor fit] | –
O=C(CSc1oc(-c2cccs2)nc1S(=O)(=O)c1ccccc1)Nc1ccc(F)cc1 | inconclusive [inhibitor, partial curve] | –
Oc1ccc(/C=C/c2nc(-c3ccccc3O)n(-c3ccccc3)n2)cc1 | inconclusive [inhibitor, single point] | –
CCOC(=O)CSc1nc(-c2ccc(OC)cc2)cc(C(F)(F)F)c1C#N | inconclusive [inhibitor, single point] | –
COc1ccc2nc(NC(=O)CSc3nnc4n3C(C)(C)Cc3ccccc3-4)sc2c1 | inconclusive [inhibitor, single point] | –
CCNC(=S)N1CCN(S(=O)(=O)c2ccc(C)c(C)c2)CC1 | – | inactive: 2.65%
O=S(=O)(NCc1ccco1)c1ccc2c(c1)Cc1ccccc1-2 | inconclusive [inhibitor, single point] | –
CCc1ccccc1NS(=O)(=O)c1ccc2[nH]cc(C(=O)NC3CCCC3)c(=O)c2c1 | active: 25.1 µM and active: 12.6 µM | –
Cc1ccc(NC(=O)Cn2nc(C(F)(F)F)c3c2CCC3)cc1C | inconclusive [inhibitor, partial curve] | –
CCN(CC)c1ccc(NC2=C(Cl)C(=O)c3ccccc3C2=O)cc1 | active: 5.01 µM | –
